Some test systems named below: 501Mel; A101D; A2058; A375.
Assay in all cases: cell count relative to DMSO control; melanoma cells; higher = more viable cells
What all share (settings): library dose: standard library concentration; 72 h

The other results are listed elsewhere or left out. Most values come without repeats; read them as rough.
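Also: cells treated in 1,536-well plates, then fixed and DAPI-stained, with nuclei counted from automated high-throughput microscope images.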

As for `CC(C)C[C@H](NC(=O)[C@H](Cc1ccccc1)NC(=O)c1cnccn1)B(O)O` [Bortezomib] + CCCCCCCCCCCC1=C(O)C(=O)C=C(O)C1=O [Embelin] (first compound 0.005 µM, partner dose 6 µM), the cell count came to 107% in the test with 501Mel, 70.8% in the test with A101D, 111% in the test with A2058 and 88.2% in the test with A375.
For `Cn1c(=O)n(-c2ccc(C(C)(C)C#N)cc2)c2c3cc(-c4cnc5ccccc5c4)ccc3ncc21` + c1cc(-c2cnn3cc(-c4ccc(OCCN5CCCCC5)cc4)cnc23)ccn1 [Dorsomorphin] (first compound 0.02 µM, partner dose 2 µM), in that order: 33.9%, 73.4%, 48.4% and 72.5%.
For `Cc1cc(Nc2cc(N3CCN(C)CC3)nc(/C=C/c3ccccc3)n2)n[nH]1` + COc1ccc(COc2ccc(Cc3cnc(N)nc3N)cc2OC)cc1 [GW2580] (first compound 0.2 µM, partner dose 5 µM), in that order: 57.3%, 76.5%, 93.2% and 79.8%.
Consider `Cc1cn(-c2cc(NC(=O)c3ccc(C)c(Nc4nccc(-c5cccnc5)n4)c3)cc(C(F)(F)F)c2)cn1` [nilotinib] + Cn1c(=O)n(-c2ccc(C(C)(C)C#N)cc2)c2c3cc(-c4cnc5ccccc5c4)ccc3ncc21 [NVP-BEZ235] (first compound 1 µM, partner dose 0.02 µM), for which the cell count came to 81.2% with A101D, 74.1% in the test with A2058 and 81.8% with A375.
On to `Cc1cc(Nc2cc(N3CCN(C)CC3)nc(/C=C/c3ccccc3)n2)n[nH]1` + N#Cc1c(O)c2c(-c3ccc(-c4ccccc4O)cc3)csc2[nH]c1=O [A769662] (first compound 0.2 µM, partner dose 10 µM), for which the cell count with 501Mel came to 110%; in the test on A101D, 80.1%; in the test on A2058 it was 76.7%; in the test with A375 it was 107%.
Take `Cn1c(=O)n(-c2ccc(C(C)(C)C#N)cc2)c2c3cc(-c4cnc5ccccc5c4)ccc3ncc21` + OCCn1cc(-c2cnc3nnn(Cc4ccc5ncccc5c4)c3n2)cn1 [PF04217903] (first compound 0.02 µM, partner dose 5 µM): the cell count with A101D was determined as 74.2%; with A2058, 65.8%; with A375, 95.2%.
Consider `COc1ccc(C2=N[C@@H](c3ccc(Cl)cc3)[C@@H](c3ccc(Cl)cc3)N2C(=O)N2CCNC(=O)C2)c(OC(C)C)c1` [Nutlin-3] + Cc1cc([N+](=O)[O-])ccc1NS(=O)(=O)c1cc(Cl)ccc1Cl [FH535] (first compound 0.5 µM, partner dose 5 µM), for which the cell count was found to be 75.6% in the test with 501Mel, 69.4% in the test with A101D, 86.5% in the test with A2058 and 72.4% in the test on A375.
For `CC(C)C[C@H](NC(=O)[C@H](Cc1ccccc1)NC(=O)c1cnccn1)B(O)O` [Bortezomib] + COc1cc2ncnc(Nc3ccc(Oc4ccccc4)cc3)c2cc1OC [SrcI1] (first compound 0.005 µM, partner dose 10 µM), in that order: 14.5%, 2.43%, 14.9% and 113%.
In the case of `COc1ccc(C2=N[C@@H](c3ccc(Cl)cc3)[C@@H](c3ccc(Cl)cc3)N2C(=O)N2CCNC(=O)C2)c(OC(C)C)c1` [Nutlin-3] + CC(=O)c1c(C)c2cnc(Nc3ccc(N4CCNCC4)cn3)nc2n(C2CCCC2)c1=O [palbociclib] (first compound 0.5 µM, partner dose 0.2 µM), the results for the cell count in the test on A101D, in the test on A2058 and in the test with A375 were 54.6%, 96.4% and 60.2%, respectively.
For `Cc1cn(-c2cc(NC(=O)c3ccc(C)c(Nc4nccc(-c5cccnc5)n4)c3)cc(C(F)(F)F)c2)cn1` [nilotinib] + COc1cc2c(Oc3ccc4[nH]c(C)cc4c3F)ncnc2cc1OCCCN1CCCC1 [cediranib] (first compound 1 µM, partner dose 2 µM), the cell count in the test on A101D was 93%; in the test on A2058, 118%.
`Cc1cn(-c2cc(NC(=O)c3ccc(C)c(Nc4nccc(-c5cccnc5)n4)c3)cc(C(F)(F)F)c2)cn1` [nilotinib] + O=C(Nc1ccccc1)c1cc([N+](=O)[O-])ccc1Cl [GW9662] (first compound 1 µM, partner dose 10 µM): the cell count with 501Mel came to 89.1%; in the test on A101D it was 83.5%; with A2058, 106%; with A375 it was 156%.
For `Cn1c(=O)n(-c2ccc(C(C)(C)C#N)cc2)c2c3cc(-c4cnc5ccccc5c4)ccc3ncc21` + Cn1cc(/C=C2\C(=O)Nc3cccnc32)c2ccccc21 [GW441756] (first compound 0.02 µM, partner dose 2 µM) the same measures were 94.6%, 77.7%, 92.1% and 108%.
In the case of `COc1ccc(C2=N[C@@H](c3ccc(Cl)cc3)[C@@H](c3ccc(Cl)cc3)N2C(=O)N2CCNC(=O)C2)c(OC(C)C)c1` [Nutlin-3] + CO[C@H]1C[C@@H]2CC[C@@H](C)[C@@](O)(O2)C(=O)C(=O)N2CCCC[C@H]2C(=O)O[C@H]([C@H](C)C[C@@H]2CC[C@@H](OCCO)[C@H](OC)C2)CC(=O)[C@H](C)/C=C(\C)[C@@H](O)[C@@H](OC)C(=O)[C@H](C)C[C@H](C)/C=C/C=C/C=C/1C [everolimus] (first compound 0.5 µM, partner dose 0.1 µM), the cell count in the test with A101D was 63.3%; in the test on A2058 it was 58.3%; with A375, 91.3%.
For `COc1ccc(C2=N[C@@H](c3ccc(Cl)cc3)[C@@H](c3ccc(Cl)cc3)N2C(=O)N2CCNC(=O)C2)c(OC(C)C)c1` [Nutlin-3] + CN(NC(=O)CC(=O)NN(C)C(=S)c1ccccc1)C(=S)c1ccccc1 [STA4783] (first compound 0.5 µM, partner dose 0.03 µM), in that order: 55.6%, 15.1% and 95%.
Take `Cc1cn(-c2cc(NC(=O)c3ccc(C)c(Nc4nccc(-c5cccnc5)n4)c3)cc(C(F)(F)F)c2)cn1` [nilotinib] + NC1(c2ccc(-c3nc4ccn5c(=O)[nH]nc5c4cc3-c3ccccc3)cc2)CCC1 [MK2206] (first compound 1 µM, partner dose 2 µM): the cell count with A101D worked out at 91.9%; in the test on A2058, 81.2%.
Consider `COc1ccc(C2=N[C@@H](c3ccc(Cl)cc3)[C@@H](c3ccc(Cl)cc3)N2C(=O)N2CCNC(=O)C2)c(OC(C)C)c1` [Nutlin-3] + COc1ccc2c(c1)CCC1C2CCC2(C)C(NCCCCCCN3C(=O)C=CC3=O)CCC12 [U73122] (first compound 0.5 µM, partner dose 2 µM), for which the cell count in the test with 501Mel is 116%; in the test with A101D it was 46.3%; with A2058, 58.5%; with A375, 68.4%.
For `CC(C)C[C@H](NC(=O)[C@H](Cc1ccccc1)NC(=O)c1cnccn1)B(O)O` [Bortezomib] + COc1ccc(COc2ccc(Cc3cnc(N)nc3N)cc2OC)cc1 [GW2580] (first compound 0.005 µM, partner dose 5 µM), in that order: 6.75%, 13.6%, 14.2% and 84.7%.
For `COc1ccc(C2=N[C@@H](c3ccc(Cl)cc3)[C@@H](c3ccc(Cl)cc3)N2C(=O)N2CCNC(=O)C2)c(OC(C)C)c1` [Nutlin-3] + O=C(O)C(=O)Nc1sc2c(c1C(=O)O)CCNC2 [TCS401] (first compound 0.5 µM, partner dose 8.33333 µM) the same measures were 73.2%, 75.2%, 98.7% and 132%.
Consider `CC(C)C[C@H](NC(=O)[C@H](Cc1ccccc1)NC(=O)c1cnccn1)B(O)O` [Bortezomib] + O=C1NC(=O)/C(=C/c2ccc(-c3ccc(F)cc3O)o2)S1 [AS252424] (first compound 0.005 µM, partner dose 5 µM), for which the cell count in the test on 501Mel amounted to 3.89%; in the test on A101D it was 10.9%; in the test on A2058, 14.5%; in the test with A375 it was 103%.
For `COc1ccc(C2=N[C@@H](c3ccc(Cl)cc3)[C@@H](c3ccc(Cl)cc3)N2C(=O)N2CCNC(=O)C2)c(OC(C)C)c1` [Nutlin-3] + COc1ccc(-c2ccc3c(N4CCOCC4)nc(N4C[C@@H](C)O[C@@H](C)C4)nc3n2)cc1CO [KU0063794] (first compound 0.5 µM, partner dose 0.1 µM), in that order: 76.4%, 66.3%, 85.7% and 77.5%.
For `Cc1cc(Nc2cc(N3CCN(C)CC3)nc(/C=C/c3ccccc3)n2)n[nH]1` + C=CCNC1=C2C[C@@H](C)C[C@H](OC)[C@H](O)[C@@H](C)/C=C(\C)[C@H](OC(N)=O)[C@@H](OC)/C=C\C=C(/C)C(=O)NC(=CC1=O)C2=O [Tanespimycin] (first compound 0.2 µM, partner dose 0.01 µM), the results for the cell count with A101D, with A2058 and in the test on A375 were 56.6%, 77.8% and 90.5%, respectively.
For `Cc1cn(-c2cc(NC(=O)c3ccc(C)c(Nc4nccc(-c5cccnc5)n4)c3)cc(C(F)(F)F)c2)cn1` [nilotinib] + O=C(O)[C@@H]1[O][Sb](=[O])([O][Sb]2(=[O])[O][C@H]([C@H](O)CO)[C@H](O)[C@H](C(=O)O)[O]2)[O][C@H]([C@H](O)CO)[C@@H]1O [stibogluconate] (first compound 1 µM, partner dose 10 µM), in that order: 98.7%, 110% and 220%.
In the case of `COc1ccc(C2=N[C@@H](c3ccc(Cl)cc3)[C@@H](c3ccc(Cl)cc3)N2C(=O)N2CCNC(=O)C2)c(OC(C)C)c1` [Nutlin-3] + N#Cc1c(O)c2c(-c3ccc(-c4ccccc4O)cc3)csc2[nH]c1=O [A769662] (first compound 0.5 µM, partner dose 10 µM), the cell count turned out to be 97.5% with 501Mel, 83.4% in the test on A101D, 98.5% with A2058 and 96.6% in the test with A375.
Consider `Cc1cc(Nc2cc(N3CCN(C)CC3)nc(/C=C/c3ccccc3)n2)n[nH]1` + O=c1cc(-c2cccc3c2Sc2ccccc2S3)oc(N2CCOCC2)c1 [KU55933] (first compound 0.2 µM, partner dose 5 µM), for which the cell count with 501Mel is 97.8%; in the test on A101D, 86.9%; in the test on A2058, 91%; with A375 it was 129%.
For `CC(C)C[C@H](NC(=O)[C@H](Cc1ccccc1)NC(=O)c1cnccn1)B(O)O` [Bortezomib] + O=c1cc(-c2cccc3c2Sc2ccccc2S3)oc(N2CCOCC2)c1 [KU55933] (first compound 0.005 µM, partner dose 5 µM), in that order: 10%, 9.91%, 9.86% and 98.5%.
Take `Cc1cc(Nc2cc(N3CCN(C)CC3)nc(/C=C/c3ccccc3)n2)n[nH]1` + Cn1c(=O)n(-c2ccc(C(C)(C)C#N)cc2)c2c3cc(-c4cnc5ccccc5c4)ccc3ncc21 [NVP-BEZ235] (first compound 0.2 µM, partner dose 0.02 µM): the results for the cell count in the test with A101D, with A2058 and in the test with A375 were 53.3%, 68.2% and 80.1%, respectively.

The values above are taken from the supplement of paper PMC4604168 (melanoma cell lines).
